{"source": "PubChem BioAssay AID445", "about": "(National Center for Advancing Translational Sciences (NCATS), 2006)", "note": "Among all 110,000 compounds or so, about 40 (0.04%) were called active. Inconclusive means that the source gave no clear call. Such entries were picked first, then a sample of the others. Calls come from the whole dose curve; as a rule, active = well fitted curve in the direction sought with a large enough effect in the signal ratio (not every such curve was filed as active); inconclusive = small, poorly fitted or top-dose-only effect, or a change in a side signal; inactive = flat fitted curve, though single readings scatter; the % refers to the signal ratio. A potency beside an inconclusive call is a rough fit, not a confirmed value. Potency is the fitted concentration of half-maximal effect."}
{"assay": "IkB Signaling;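 for IkBa stabilization activation: 0% = basal untreated cells and 100% = reference inhibitor full response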", "conditions": "ABC-DLBCL IkBa-CBG/CBR dual luciferase ratio (green luciferase fused to IkBa over red control in OCI-Ly3 lymphoma cells), 4 h; IkBa stabilization activation: at 57.1 µM (top of the series), scaled: untreated 0%, proteasome inhibitor 100% unless noted", "summary_of_the_method": "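Curves were fitted separately to fusion (green), unfused (red) and ratio luminescence, then classed by r2, magnitude and activity. Cells: OCI-Ly3, 4 h compound plus doxycycline at 37C; 10 uM MG-132 defined full response.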"}
{"smiles": "O=C(CSC1=Nc2ccccc2N=C(c2ccc(F)cc2)C1)Nc1cccc(C(F)(F)F)c1", "IkBa stabilization activation": "inconclusive: 0.185% [signal inhibitor]"}
{"smiles": "Clc1ccccc1-c1nc(-c2cccnc2)no1", "IkBa stabilization activation": "inactive"}
{"smiles": "CCc1ccc(NC(=O)CC2C(=O)N(c3cccc(C)c3)C(=O)N2CCC(C)C)cc1", "note": "(stereo not given)", "IkBa stabilization activation": "inconclusive: 3.91% [signal inhibitor]"}
{"smiles": "COc1ccc2c(c1)c(C(O)CN1CCN(Cc3ccc4c(c3)OCO4)CC1)c(C)n2C", "note": "(stereo not given)", "IkBa stabilization activation": "inconclusive: 9.36% [signal inhibitor]"}
{"smiles": "CCOC(=O)C1CCCN(C(=O)C2CCN(S(=O)(=O)c3c(C)noc3/C=C/c3ccccc3F)CC2)C1", "note": "(stereo not given)", "IkBa stabilization activation": "inconclusive: 0.398% [signal inhibitor]"}
{"smiles": "CCOC(=O)c1c(C)oc2c(F)c(F)c(F)c(F)c2c1=O", "IkBa stabilization activation": "inconclusive: 0.141% [signal inhibitor]"}
{"smiles": "COc1ccc(-c2noc(CCC(=O)NCC3CCN(Cc4cccc(C)c4)CC3)n2)cc1", "IkBa stabilization activation": "inconclusive: 0.177% [signal inhibitor]"}
{"smiles": "COc1ccc(OC)c(-c2cc(C(=O)Nc3c(C)nn(Cc4ccccc4Cl)c3C)no2)c1", "IkBa stabilization activation": "inactive"}
{"smiles": "CCn1cc(C(=O)OCc2cccc(Br)c2)c(=O)c2ccc(C)nc21", "IkBa stabilization activation": "inactive"}
{"smiles": "CCC(C)C(=O)N1CCc2cc(-c3csc(N)n3)ccc21", "note": "(stereo not given)", "IkBa stabilization activation": "inactive"}
{"smiles": "O=C1NCCCc2c1oc1ccc(O)cc21", "IkBa stabilization activation": "inconclusive: -1.02% [signal inhibitor]"}
{"smiles": "COc1ccc2nc(SCC(=O)Nc3ccc4c(c3)OCCO4)[nH]c2c1", "IkBa stabilization activation": "inconclusive: 2.23% [signal inhibitor]"}
{"smiles": "COc1ccc(CNC(=O)CN(c2ccc(C(C)C)cc2)S(=O)(=O)c2c(C)nn(C)c2C)cc1", "IkBa stabilization activation": "inconclusive: 2.97% [signal inhibitor]"}
{"smiles": "COc1ccc(NC(=O)CSc2nc3ccccc3nc2N2CCC(C)CC2)cc1", "IkBa stabilization activation": "inactive"}
{"smiles": "COc1ccc(OC)c(Nc2cc(-c3ccccc3)nc(N)n2)c1", "Potency": "inconclusive: 20 µM [rising, partial curve]"}
{"smiles": "COc1ccccc1NC(=O)C1=C(C)Nc2nc(CCCO)nn2C1c1cccc(O)c1", "note": "(stereo not given)", "IkBa stabilization activation": "inconclusive: -2.4% [signal inhibitor]"}
{"smiles": "O=C1C(C=NCCN2CCOCC2)=C(O)c2ccccc21", "IkBa stabilization activation": "inactive"}
{"smiles": "CCn1c2ccccc2c2cc(NC(=O)Cc3ccc(S(=O)(=O)N4CCOCC4)s3)ccc21", "IkBa stabilization activation": "inactive"}
{"smiles": "Cc1ccc(S(=O)(=O)N2CCCc3cc(NS(=O)(=O)c4cc(F)ccc4F)ccc32)cc1", "IkBa stabilization activation": "inconclusive: 11.3% [signal inhibitor]"}
{"smiles": "O=C(NCCc1ccccc1)c1cnc2sccn2c1=O", "IkBa stabilization activation": "inconclusive: 18% [signal inhibitor]"}
